Laboratory results: the supplement of paper PMC9174493
The other results are listed elsewhere or left out. Single values of this set are uncertain. Values with irradiation are relative to irradiated vehicle.

Key:
A549-Dual [1] = test: NF-kB reporter (SEAP) activity, viability-corrected, relative to vehicle (fold change vs vehicle); higher = more activation of STING-IRF / NF-kB immune response reporter
A549-Dual [2] = test: ISRE reporter (Lucia luciferase) activity, viability-corrected, relative to vehicle (fold change vs vehicle); higher = more activation of STING-IRF / NF-kB immune response reporter
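Wherever NF-kB reporter (SEAP) activity, viability-corrected, relative to vehicle is given: viability correction based on the alamar blue assay, with concentrations leaving 10% survival or less dropped.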

SMILES | NF-kB reporter (A549-Dual [1]; 0.1 µM, irradiation: 8 Gy/4 fr) | NF-kB reporter (A549-Dual [1]; 0.1 µM, irradiation: none) | NF-kB reporter (A549-Dual [1]; 0.3 µM, irradiation: 8 Gy/4 fr) | NF-kB reporter (A549-Dual [1]; 0.3 µM, irradiation: none) | NF-kB reporter (A549-Dual [1]; 1 µM, irradiation: 8 Gy/4 fr) | NF-kB reporter (A549-Dual [1]; 1 µM, irradiation: none) | NF-kB reporter (A549-Dual [1]; 3 µM, irradiation: 8 Gy/4 fr) | NF-kB reporter (A549-Dual [1]; 3 µM, irradiation: none) | NF-kB reporter (A549-Dual [1]; 10 µM, irradiation: 8 Gy/4 fr) | NF-kB reporter (A549-Dual [1]; 10 µM, irradiation: none) | ISRE reporter (A549-Dual [2]; 0.1 µM, irradiation: 8 Gy/4 fr) | ISRE reporter (A549-Dual [2]; 0.1 µM, irradiation: none) | ISRE reporter (A549-Dual [2]; 0.3 µM, irradiation: 8 Gy/4 fr) | ISRE reporter (A549-Dual [2]; 0.3 µM, irradiation: none) | ISRE reporter (A549-Dual [2]; 1 µM, irradiation: 8 Gy/4 fr) | ISRE reporter (A549-Dual [2]; 1 µM, irradiation: none) | ISRE reporter (A549-Dual [2]; 3 µM, irradiation: 8 Gy/4 fr) | ISRE reporter (A549-Dual [2]; 3 µM, irradiation: none) | ISRE reporter (A549-Dual [2]; 10 µM, irradiation: 8 Gy/4 fr) | ISRE reporter (A549-Dual [2]; 10 µM, irradiation: none)
O=C(O)COC(=O)Cc1ccccc1Nc1c(Cl)cccc1Cl [Aceclofenac] | 0.99 | 1.71 | 1.2 | 1.46 | 1.29 | 1.19 | 1.63 | 1.23 | 0.784 | 0.476 | 0.938 | 1.72 | 0.974 | 1.38 | 1.13 | 1.03 | 0.855 | 1.05 | 0.951 | 0.92
CCOC(=O)OC1(C(=O)OCCl)CCC2C3CCC4=CC(=O)C=CC4(C)C3C(O)CC21C (stereo not given) [Loteprednol etabonate] | 0.774 | 1.23 | 0.723 | 1.18 | 1.47 | 1.08 | 1.41 | 0.941 | 0.738 | 0.725 | 0.113 | 0.326 | 0.0993 | 0.429 | 0.0949 | 0.277 | 0.0779 | 0.289 | 0.0754 | 0.203
C=CC(=O)Nc1cccc(Oc2nc(Nc3ccc(N4CCN(C)CC4)cc3)nc3ccsc23)c1 | 1.16 | 1.02 | 0.828 | 1.31 | 0.982 | 1.53 | 0.854 | 1.26 | 0.762 | 0.945 | 0.94 | 1.15 | 0.817 | 1.11 | 0.997 | 1.25 | 0.858 | 1.2 | 0.837 | 1.03
CNC(=O)c1cc(Oc2ccc(NC(=O)Nc3ccc(Cl)c(C(F)(F)F)c3)c(F)c2)ccn1.O [Regorafenib Monohydrate] | 1.04 | 1.18 | 0.891 | 0.898 | 0.849 | 0.924 | 0.811 | 1.12 | 0.742 | 1.26 | 0.972 | 1.18 | 0.955 | 0.814 | 0.662 | 0.735 | 0.333 | 0.416 | 0.222 | 0.538
COc1ccc2cc1Oc1ccc(cc1)CC1c3cc(c(OC)cc3CCN1C)Oc1c(O)c(OC)cc3c1C(C2)N(C)CC3 (single isomer, unassigned; (+)) [(+)-Fangchinoline] | 0.985 | 0.936 | 0.937 | 0.922 | 0.959 | 1.24 | 0.938 | 0.941 | 0.98 | 1 | 1.11 | 0.99 | 1.11 | 1.05 | 1.21 | 1.38 | 1.09 | 1.53 | 1.35 | 2.48
CN(C)CCOC(c1ccccc1)c1ccccc1.Cl [Diphenhydramine HCl] | 1.04 | 0.853 | 0.98 | 0.989 | 1.17 | 0.848 | 0.77 | 0.927 | 0.832 | 1.01 | 1.06 | 0.981 | 0.856 | 1.03 | 1.07 | 0.927 | 0.885 | 1.07 | 1.08 | 0.923
COc1cccc2c1C(=O)c1c(O)c3c(c(O)c1C2=O)CC(O)(C(=O)CO)CC3OC1CC(N)C(O)C(C)O1.Cl (stereo not given) [Doxorubicin (Adriamycin) HCl] | 0.915 | 1.83 | 1.4 | 3.17 | 2.81 | 10.4 | 4.91 | 6.92 | 2.69 | 1.82 | 0.481 | 3.44 | 0.814 | 6.1 | 0.618 | 2.12 | 0.634 | 3 | 0.363 | 0.632
O=C(O)CCCN1CCC(OC(c2ccc(Cl)cc2)c2ccccn2)CC1.O=S(=O)(O)c1ccccc1 (stereo not given) [Bepotastine Besilate] | 1.24 | 1.23 | 1.08 | 1.54 | 1.07 | 2.11 | 1.14 | 1.36 | 1.12 | 1.09 | 1.11 | 1.29 | 1.08 | 1.31 | 1.21 | 1.36 | 1.3 | 1 | 1.15 | 1.06
CC(C(=O)O)c1ccc(C(=O)c2ccccc2)s1 (stereo not given) [Tiaprofenic acid] | 1.07 | 2.08 | 1.46 | 1.79 | 1.82 | 1.43 | 1.43 | 1.29 | 1.08 | 0.829 | 1.05 | 2.06 | 1.16 | 1.27 | 1.43 | 1.2 | 0.731 | 1.11 | 1.17 | 0.997
CC1CC2C3CCC4=CC(=O)C=CC4(C)C3(F)C(O)CC2(C)C1(O)C(=O)COP(=O)([O-])[O-].[Na+].[Na+] (stereo not given) [Dexamethasone Sodium Phosphate] | 0.942 | 0.88 | 1.2 | 1.39 | 0.688 | 1.1 | 0.65 | 0.839 | 0.649 | 1.53 | 0.0814 | 0.358 | 0.0735 | 0.243 | 0.0687 | 0.223 | 0.059 | 0.261 | 0.0655 | 0.157
CCOC(=O)N1CCC(=C2c3ccc(Cl)cc3CCc3cccnc32)CC1 [Loratadine] | 0.963 | 1.26 | 1 | 1.62 | 1.33 | 0.991 | 1.34 | 0.984 | 0.896 | 1.08 | 0.943 | 0.834 | 0.847 | 0.962 | 0.783 | 0.917 | 0.767 | 0.971 | 0.909 | 2.02
